Source: the supplement of paper PMC4604168 (melanoma cell lines)
Some of the results follow. Single values are uncertain, as repeats are few or missing.

Tests used:
Test in all cases: cell count relative to DMSO control; melanoma cells; higher = more viable cells
Conditions in all cases: library dose: standard library concentration; 72 h
G361 = test system: G361
IPC-298 = test system: IPC-298
IST-MEL1 = test system: IST-MEL1
LB2518-MEL = test system: LB2518-MEL
LOXIMVI = test system: LOXIMVI
MEL-HO = test system: MEL-HO
MZ2-MEL = test system: MZ2-MEL
MeWo = test system: MeWo
RPMI7951 = test system: RPMI7951
RVH-421 = test system: RVH-421
SkMel28 = test system: SkMel28
SkMel2 = test system: SkMel2
SkMel30 = test system: SkMel30
SkMel5 = test system: SkMel5
UACC257 = test system: UACC257
UACC62 = test system: UACC62
WM115 = test system: WM115
WM1716 = test system: WM1716
WM1745 = test system: WM1745
WM3526 = test system: WM3526
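Also: cells treated in 1,536-well plates, then fixed and DAPI-stained, with nuclei counted from automated high-throughput microscope images.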

| Structure (SMILES) | cell count (G361) [%] | cell count (IPC-298) [%] | cell count (IST-MEL1) [%] | cell count (LB2518-MEL) [%] | cell count (LOXIMVI) [%] | cell count (MEL-HO) [%] | cell count (MZ2-MEL) [%] | cell count (MeWo) [%] | cell count (RPMI7951) [%] | cell count (RVH-421) [%] | cell count (SkMel28) [%] | cell count (SkMel2) [%] | cell count (SkMel30) [%] | cell count (SkMel5) [%] | cell count (UACC257) [%] | cell count (UACC62) [%] | cell count (WM115) [%] | cell count (WM1716) [%] | cell count (WM1745) [%] | cell count (WM3526) [%] |
| --- | --- | --- | --- | --- | --- | --- | --- | --- | --- | --- | --- | --- | --- | --- | --- | --- | --- | --- | --- | --- |
| Nc1ncn([C@H]2C[C@H](O)[C@@H](CO)O2)c(=O)n1 [decitabine] + NC(=O)Nc1cc(-c2cccc(F)c2)sc1C(=O)N[C@H]1CCCNC1 [AZD7762] (first compound 0.5 µM, partner dose 0.1 µM) | 84 | 73.9 | 74.4 | 74 | 84.4 | 63.4 | 86.5 | 60.6 | 26.1 | 102 | 52.8 | 119 | 71.3 | 67.4 | 94.9 | 53.8 | 58.1 | 64.8 | 70.4 | 50 |
| CO[C@H]1C[C@@H]2CC[C@@H](C)[C@@](O)(O2)C(=O)C(=O)N2CCCC[C@H]2C(=O)O[C@H]([C@H](C)C[C@@H]2CC[C@@H](OCCO)[C@H](OC)C2)CC(=O)[C@H](C)/C=C(\C)[C@@H](O)[C@@H](OC)C(=O)[C@H](C)C[C@H](C)/C=C/C=C/C=C/1C [everolimus] + CCCS(=O)(=O)Nc1ccc(F)c(C(=O)c2c[nH]c3ncc(Cl)cc23)c1F [PLX4720] (first compound 0.1 µM, partner dose 0.4 µM) | 46.9 | 55.7 | 81 | 70.1 | 81.8 | 71.6 | 61.9 | 81.5 | 77.8 | 82.3 | 27.7 | 72 | 61.6 | 61.4 | 96.9 | 52.5 | 55.4 | 68 | 84.5 | 46.3 |
| Nc1nc(F)nc2c1ncn2[C@@H]1O[C@H](CO)[C@@H](O)[C@@H]1O [fludarabine] + CN(NC(=O)CC(=O)NN(C)C(=S)c1ccccc1)C(=S)c1ccccc1 [STA4783] (first compound 1 µM, partner dose 0.03 µM) | 37.3 | 54.8 | 26.8 | 24.7 | 66.6 | 73.2 | 106 | 18.6 | 53.7 | 56.2 | 0.48 | 1.83 | 21.3 | 15.7 | 34 | 37.6 | 12.2 | 75.4 | 41.5 | 20.9 |
| Nc1nc(F)nc2c1ncn2[C@@H]1O[C@H](CO)[C@@H](O)[C@@H]1O [fludarabine] + C=CCNC1=C2C[C@@H](C)C[C@H](OC)[C@H](O)[C@@H](C)/C=C(\C)[C@H](OC(N)=O)[C@@H](OC)/C=C\C=C(/C)C(=O)NC(=CC1=O)C2=O [Tanespimycin] (first compound 1 µM, partner dose 0.01 µM) | 60.9 | 69.2 | 62 | 81 | 102 | 68.9 | 92.2 | 74.7 | 24.8 | 97.7 | 1.32 | 1.6 | 21.2 | 29.2 | 30.6 | 61.4 | 38.3 | 90.4 | 76.1 | 23.4 |
| CC(=O)c1c(C)c2cnc(Nc3ccc(N4CCNCC4)cn3)nc2n(C2CCCC2)c1=O [palbociclib] + Cn1cncc1[C@@](N)(c1ccc(Cl)cc1)c1ccc2c(c1)c(-c1cccc(Cl)c1)cc(=O)n2C [tipifarnib] (first compound 0.2 µM, partner dose 0.05 µM) | 57.5 | 62.4 | 69.5 | 61.3 | 59.6 | 73.3 | 72.9 | 42.9 | 55.2 | 59.5 | 38.5 | 48.9 | 57.2 | 50.7 | 80.4 | 85.4 | 56.3 | 46.6 | 71.6 | 51.4 |
| CC(=O)c1c(C)c2cnc(Nc3ccc(N4CCNCC4)cn3)nc2n(C2CCCC2)c1=O [palbociclib] + OCCn1cc(-c2cnc3nnn(Cc4ccc5ncccc5c4)c3n2)cn1 [PF04217903] (first compound 0.2 µM, partner dose 5 µM) | 77.7 | 78.8 | 72.2 | 78.5 | 97.3 | 89 | 75.9 | 60.5 | 73.8 | 70.4 | 47.1 | 63.1 | 58.5 | 68.3 | 83.5 | 79.4 | 61.6 | 43.3 | 96.5 | 52.7 |
| Nc1ccn([C@@H]2O[C@H](CO)[C@@H](O)C2(F)F)c(=O)n1 [gemcitabine] + COc1cc(Nc2ncc(F)c(Nc3ccc4c(n3)NC(=O)C(C)(C)O4)n2)cc(OC)c1OC [Tamatinib] (first compound 0.002 µM, partner dose 2 µM) | 71 | 40 | 31.4 | 83.6 | 24.1 | 64.2 | 72.9 | 43 | 36.7 | 79.6 | 93.1 | 70.8 | 89.3 | 64.4 | 88.9 | 79.7 | 80.5 | 73.4 | 41.2 | 75.4 |
